Results reported in the supplement of paper PMC10126150.
Values marked as one replicate rest on one cluster of the flow cell; about a third of the high ones do not repeat.

Test system: ATP
Assay: switch fluorescence ratio, 500 uM ATP over buffer (Cy3 cluster intensity, sum of 5 cycles each) (fold (ratio)); higher = stronger signal-on switching upon ATP binding; sequences stand for … in TCGTCGGCAGCGTCAGATGTGTATAAGAGACAGTTTTTTTTTTTTTTTTTTTTTTTTT…TC
Conditions: aptamer strand: ATP DNA aptamer (quencher-CACCTGGGGGAGTATTGCGGAGGAAGG + anchor), 100 nM annealed; ATP concentration: 500 uM; one replicate
Summary of the method: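 The quencher-labelled ATP aptamer, at 100 nM, was annealed to Cy3-labelled switching-strand clusters on a modified Illumina MiSeq flow-cell. The clusters were imaged in selection buffer, then after 15 min with 500 uM ATP at 22 °C, and this buffer/ATP cycle ran five times with NaOH stripping and re-annealing between runs. Per-cluster fluorescence ratios, summed target-cycle over summed buffer-cycle Cy3 intensity, were averaged per switch-domain sequence. Clusters outside 100-1000 RFU were excluded.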
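Note: ATP exposure 15 min at 22 °C before imaging.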

Sequence	switch fluorescence ratio
AACAATTTCG	0.987
ACTTGCATTC	1.71
AGGAAGGTTC	1.03
ATCTAATTCA	0.967
AGCCAAATAG	1.17
TGGAATCGGA	0.973
AGGCCGTGGA	1.02
GTAAATTGAC	1.02
GGGATTTGT	0.979
AAACGGGTAA	0.979
ATAGCTCCAC	1.08
ATAGATGAGA	0.955
GTATGGCGGT	0.919
CAGGTTTTCA	1.01
GCCGAAGGCT	1
CCGAAGGCGC	0.992
CATGAACGTA	1.08
GCAGCTGATT	1.02
TCGTCAGCGC	1.18
AGTGTTAATC	0.993
ATTTTAGCCA	0.966
TTGTCAGG	0.992
CCACGCCATA	1.93
TTTGCGACTT	1.04
AGTAGGAACC	0.978
CCCGGTAGGA	1.01

Sequence	switch fluorescence ratio
TGAAGCAGAA	1.3
ACACCGCTCA	1.76
AATCACGTGG	0.973
AAGTAACCCA	1.05
AAGCGCGGTC	1.06
AGGTCTATGG	0.983
GTTTCCACGG	1.02
TGAGAATGG	1
CCAACAGTTT	1.03
GAGTGTCCTT	1.03
GTGCTGGGGT	1.03
GGGGGGCTCT	0.929
GAGTGCGGGG	1.02
TTGAGGCTAG	0.941
ATCGCGGCTA	1.01
CGATTAGGG	0.987
AGGCTCTTGC	0.976
CCATGTGAGA	1
ATATCAGAAA	1.03
AGTCAAACCA	1.02
TATGCTAGAC	1.43
GGTGTGCCCT	1.05
TTTGGTATAT	0.945
TCGATTCTTG	1.06
AACTCACACA	1.2
GAATTTAGAA	1.02

Sequence	switch fluorescence ratio
CAAAAAGCCG	1.05
CGAAATCATA	0.999
ACGCTCGGGC	0.977
ATCGGTTGCG	0.944
AACTACGGAT	1.08
AGTGTTCTGC	1.12
CAGCTGCCGT	0.995
TCTTGGTGTC	0.985
CAAACGACAG	1.01
AGTGTAGGGC	1.03
ACGTGGGATG	1.03
ATAGTGTCCA	0.976
CCAGTCTAGT	1.03
GATCTTGTGG	0.971
GAGTCTAAGG	0.991
ATGCTTCCTG	1.06
TTAATTTAAT	0.994
TTTGATAATC	0.976
AAGTATAGAA	0.966
TCTCGTACAA	1.13
TCACACGCTT	1.1
ACTTGGACAA	1.06
TTCGCATGGT	1.17
ACCTTGACGT	1.13
AGCTAGTTGC	0.994
CGAAAGAGGC	1.03

Sequence	switch fluorescence ratio
ACGGCTCCGA	1.07
TATAAAAAGA	1.02
GCAGTTCCGA	1.07
TGCACATGAA	1.04
TCGATGGTGG	0.97
TTATCGCTCG	0.992
GCATCTTTTA	1.02
CGTACGTCGA	1
AGGCTTTATG	1.01
GAAAAGTGCG	0.999
TGTCTGTTTT	1.03
TGGCGCAAGG	1.11
ATTCAGGGTG	1.07
CTGTCGCGC	1.1
CCTCAAAAGT	1.39
CTAGATTAAG	0.951
AATTTTCTTG	0.926
TGTTTCGAAG	1.01
CATGTGCCGC	1.01
AATTGGATAG	1.03
TGTGCGATTG	0.992
CAAAAGCATG	0.996
GTAATATCTG	1.03
GCCTAGGGCT	0.959
CGACGTCTGG	1.02
GGAAATCGCC	1.05

Sequence	switch fluorescence ratio
AGGTCCTGCT	0.992
TGATAAACTA	0.991
GACTTAGCGC	0.928
TGGCGGGAGT	1.05
AGGAAACAC	1.03
GGCGTTTA	0.991
AAAAACAGGC	1.03
ACGACGTATG	1.02
GAAGGGTAA	1.02
GAAGGGAAGC	0.977
GAATATACGG	1.04
TTGGATGTAG	1.01
GATGGTGGTC	1.06
ACTTGGTACC	1
TGTGTAATGG	1.02
ATGGACCTAA	1.03
TATAACAAAG	1.01
AAGCTTCATC	1.56
TCGGTTAGGG	1.07
AGGAGGGACC	0.994
TACTTAAAGA	1.03
GGACCGTGCT	0.97
CAATCATGCC	0.989
GTGCTAGATA	0.993
ATATGGTTGC	1.03
CCTATTGA	0.963

Sequence	switch fluorescence ratio
GCCACGCAGC	1.14
GCCATCGCAT	1.13
TCCGGTGCGA	4.92
CGCCATCTTC	1.01
CCGCGACCT	3.02
TTCATTTGG	0.973
CTAGGACCTT	1.17
TAATTTCAAA	0.975
TTAAGTATGC	1.05
GTTTTTCGA	0.989
GCTCTACCAC	1.05
TATTTGGGAA	1.02
CATTTCTCAG	1.01
GCTACAGAGG	1.04
TTTTGCAAGA	1.84
GTCCCTATCG	0.975
ATTGTGTATA	1.05
CGAGACAACG	0.937
TATAGGAATT	1.01
TAATAAGTTC	0.994
CTGGGGGG	1.02
TCTATACAC	1.07
ACGGGCTCAC	1.12
TAGATGTCGG	1
AAAACTATTG	1.07
ATTGGGCGAT	1

Sequence	switch fluorescence ratio
TTTCACCTGT	1.04
GATGTCTAAA	0.985
GTTCGCGTAA	1.05
CGTCTGATGT	1.02
ATTGCTTAGG	0.999
GGTGGCTGG	0.988
TAGCAATAT	1.09
AAAAGTTCGA	0.961
GTAGTGTGCG	1.01
TTCAGGGTCT	0.977
AAAGAAGACT	0.93
ATCGGAACCG	1
TTAACTGGCA	1
GAATACGACC	3.79
CGAGTTACAA	1.05
TACCGAGCCA	1.13
TAGTTTGGAG	0.998
TCCAGCCAAT	1.67
TCTCCCAATT	5.44
ATAGAGTGAT	0.986
TTTGTGGGAA	0.948
TCACGAAGCT	1.03
CCAGCATTCG	1.18
AGCTGTGCAG	1.01
GCTTAGATGG	0.985
TGGTCGTCAA	0.959

Sequence	switch fluorescence ratio
AAATGGTTGC	0.973
ATGCGATTAG	0.971
TATTAAGCTC	0.977
CCTGGGATGT	1.01
AATCATGCT	0.973
GAGCATTCG	1.07
TTAGAATAGC	1.01
GGACGCGAGA	1.16
AGGAATAGAC	1.06
TTCTCATGAA	0.959
CATTTATTAT	0.962
CAGGATGTGA	0.988
ACGATTAGAT	1
ATTCGTCTGT	1.02
TTAGAAAACG	0.955
GACCTGTTAG	0.962
GCACGCTCTG	1.04
TGTAAACCCA	1.04
TGGGCTCTAT	0.982
